Reference: PubChem BioAssay AID1345082 (National Center for Advancing Translational Sciences (NCATS), 2018)
Screen size: about 94,000 compounds; about 4,000 (4.3%) were called active. Inconclusive results, whose numbers are uncertain, are shown with a selection of clear calls. Calls follow the shape of the dose curve; as a rule, active = well fitted inhibition curve with a large enough effect; inconclusive = small, poorly fitted or top-dose-only effect; inactive = no such curve, though single readings can be large or run the other way. Potencies beside an inconclusive call are fits to weak or partial responses and may not hold up.

Assay: Cytotoxic Profiling in NIH 3T3 Cell Line of Diverse Libraries Using Quantitative High-Throughput Screening; also: nearly all actives have a fitted effect of over 55% in size
Details: NIH 3T3 viability, CellTiter-Glo ATP luminescence, 48-72 h; activity change, negative = cytotoxicity: at 96.7 µM (top of the series) unless noted; series mostly up to 96.7 µM
Outline: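 ATP-dependent luminescence (CellTiter-Glo) served as the viability signal for NIH 3T3 cells treated with compound for 48 or 72 hr at 37 °C.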
% is scaled to controls: 0 for no effect and ±100 for the full control effect; potency is read from the fitted curve at half-maximal effect; tags tell the direction and shape of the fitted curve.

SMILES	activity change, negative = cytotoxicity	Potency
CC1CNC(Cc2ccccc2)CN1C(=O)OC(C)(C)C (stereo not given)	inactive: -7.33% [at 138 µM]	
CC1=C[C@@H](CNC(=O)c2ccc(C#N)cc2)[C@H](C(C)C)C[C@H]1Cc1nnc(-c2ccncc2)o1		inconclusive: 50.1 µM [inhibitor, partial curve, poor fit]
COc1ccc(Nc2ccnc(N3CCC(N[S+](=O)([O-])c4cccs4)CC3)n2)cc1		active: 35.5 µM
COc1ccc(CNC(=O)N2CCCC(Cc3noc(-c4ccccn4)n3)C2)cc1 (stereo not given)	inactive: -20.8%	
COc1cccc(C(O)c2nc(C(=O)NCc3ccco3)c(C)o2)c1 (stereo not given)		inconclusive: 100 µM [inhibitor, partial curve, poor fit]
COC(=O)[C@@H]1Cc2c([nH]c3ccccc23)[C@H]2C[C@H](NCCNC(C)=O)C[C@@H](c3ccc(C)cc3)N21		active: 25.1 µM
C1CCC(COCCc2noc(C3CCCNC3)n2)C1 (stereo not given)	inactive: 1.5%	
CC(C)Cn1c(=O)c(C(=O)NC2CC2)nc2cccnc21	inactive: -16.2% [at 138 µM]	
Cn1nccc1-c1cc2c(ccn2C)c(C(=O)NCc2cccnc2)n1		active: 28.2 µM
c1cnc2nc([C@H]3CCN(C4CCCCC4)C3)[nH]c2c1	inactive: 1.68% [at 230 µM]	
O=C(c1cnn2ccccc12)N1CCC(Cc2cccc(CO)c2)C1 (stereo not given)		inconclusive: 50.1 µM [inhibitor, partial curve, poor fit]
CCCNC(=O)c1cccc2c1CCN2C(=O)Nc1ccc(OC)cc1		inconclusive: 39.8 µM [inhibitor, partial curve, poor fit]
O=S(=O)(c1ccc(Cl)cc1)c1nnn2c1nc(N1CCOCC1)c1ccccc12		inconclusive: 11.2 µM [inhibitor, partial curve, poor fit]
Cc1cccc(CN(C)CC2CCCN(CCc3cccc(C(F)(F)F)c3)C2)n1 (stereo not given)		inconclusive: 56.2 µM [inhibitor, partial curve, poor fit]
O=S1(=O)NC2(CCN(Cc3c[nH]c4ccccc34)C2)COc2ccncc21 (stereo not given)	inactive: 3.08%	
O=C(NCCOc1ccccc1Cl)C1CCC(=O)N(C2CCCC2)C1 (stereo not given)		inconclusive: 89.1 µM [inhibitor, single point]
CC1Oc2ccc(NS(=O)(=O)c3cccc(Cl)c3)cc2CN(Cc2ccccc2Cl)C1=O (stereo not given)		active: 22.4 µM
O=C(CNC(=O)c1ccc(-c2cccc(C(F)(F)F)c2)cc1)NCCc1ccc(F)cc1		inconclusive: 31.6 µM [inhibitor, full curve, poor fit]
COc1ccc(C2Cn3cnc(C(=O)N4CCC(C(=O)Nc5ccc(F)cc5C)CC4)c3CO2)cc1 (stereo not given)	inactive: -0.65%	
COc1cccc(CC(=O)N2CCC3(CC2)CC(Cc2nc(-c4ccncc4)no2)CCO3)c1 (stereo not given)		inconclusive: 39.8 µM [inhibitor, partial curve, poor fit]
